PubChem BioAssay AID1347120 (National Center for Advancing Translational Sciences (NCATS), 2019)
The campaign covered roughly 390,000 compounds. About 930 (0.24%) were called active. The inconclusive results got no clear call from the source; some entries with a clear call stand among them for comparison. Calls come from the whole dose curve; as a rule, active = well fitted activation curve with a large enough effect; inconclusive = small, poorly fitted or top-dose-only effect; inactive = no such curve, though single readings can be large or run the other way. Potencies beside an inconclusive call are fits to weak or partial responses and may not hold up.

Experiment: qHTS for Suppressors of FUS Proteinopathy: Primary screen using FUS-linked yeast assay; note: nearly all actives have a fitted effect of over 55% in size
Details: S. cerevisiae FUS-expressing, OD600, 24 h; Potency: growth rescue; series mostly up to 76.6 µM
Outline: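 S. cerevisiae expressing FUS from galactose induction served as the toxicity model. Growth after 24hr at 30C, read as absorbance at 600 nm, indicates suppression of toxicity; compounds dosed at several concentrations.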
Potency is the fitted concentration of half-maximal effect; tags give direction and shape of the fitted curve.

Compound	Potency
Cc1ccc(NC(=O)CN2C(=O)c3ccccc3Sc3ccc(C(=O)N4CCOCC4)cc32)cc1C	inconclusive: 31.6 µM [activator, single point]
COc1ccc(C2C(C#N)=C(N)Oc3cc4c(cc32)OCO4)cc1 (stereo not drawn)	inactive
Cc1ccccc1OCCSc1nc2ccc(NC(=O)c3ccco3)cc2s1	inconclusive: 39.8 µM [activator, partial curve, poor fit]
COC(=O)c1ccccc1NC(=O)Cn1c(=O)n(-c2ccc(C)cc2)c(=O)c2ccccc21	inactive
COc1ccc(CC(=O)O/N=C(\N)c2ccccn2)cc1	inactive
O=Cc1c(-c2ccc(F)cc2)nc2ccccn12	inactive
CCC(CC)NC(=O)O[C@H]1CC[C@@]23CCCN2C(=O)CCC[C@H]3C1	inactive
N/C(=N\OC(=O)c1ccc(=O)n(Cc2ccc(Cl)cc2)c1)c1ccccn1	inactive
COC(=O)[C@@]12CCCCC3=C1N(CCC3)C(=O)[C@H]2CC(=O)NCCCCc1ccccc1	inconclusive: 44.7 µM [activator, single point]
Cc1ccc(-c2nc(CS(=O)(=O)CC(=O)N3CCN(c4ccccc4)CC3)c(C)o2)cc1	inconclusive: 35.5 µM [activator, single point]
CC1(c2ccc3c(c2)OCO3)NC(=O)N(CC(=O)Nc2ccc(N3CCOCC3)cc2)C1=O (stereo not drawn)	inconclusive: 11.2 µM [activator, partial curve]
O=C(NCc1ccc(F)cc1)c1cc(C2CCCCN2S(=O)(=O)Cc2ccccc2)on1 (stereo not drawn)	inconclusive: 5.62 µM [activator, full curve]
CC(C)(C)NC(=O)C(c1ccc(-c2ccccc2)cc1)N(C[C@H]1CC[C@@H]([C@@H]2CC[C@H](CO)O2)O1)C(=O)c1ccc(-c2ccccc2)cc1 (stereo partly drawn)	inconclusive: 15.8 µM [activator, partial curve]
Cc1noc(NS(=O)(=O)c2ccc(NC(=O)c3cccc(S(=O)(=O)N(C)c4ccccc4)c3)cc2)c1C	inconclusive: 28.2 µM [activator, single point]
CCN1C(=O)[C@@H]2[C@@H](c3ccc(-c4ccc(Cl)c(Cl)c4)cc3)N3CCC[C@@]3(C(=O)OC)[C@@H]2C1=O	active: 20 µM
CC(C)(C)OC(=O)N1CCc2onc(-c3ccc(Br)cc3)c2C1=O	inactive
CC1=C(C(=O)N(C(C)C)C(C)C)CC(CC(=O)NCCCCc2ccccc2)C(=O)N1Cc1ccccc1 (stereo not drawn)	inconclusive: 35.5 µM [activator, single point]
COc1cc(C2C3=C(Nc4nc(N)[nH]c(=O)c42)c2ccccc2C3=O)ccc1O (stereo not drawn)	inconclusive: 31.6 µM [activator, single point]
